Experiment [1] concerns the target T1, GST-Pdcd4-mut4 (human) (UniProt Q53EL6).
T1 sequence: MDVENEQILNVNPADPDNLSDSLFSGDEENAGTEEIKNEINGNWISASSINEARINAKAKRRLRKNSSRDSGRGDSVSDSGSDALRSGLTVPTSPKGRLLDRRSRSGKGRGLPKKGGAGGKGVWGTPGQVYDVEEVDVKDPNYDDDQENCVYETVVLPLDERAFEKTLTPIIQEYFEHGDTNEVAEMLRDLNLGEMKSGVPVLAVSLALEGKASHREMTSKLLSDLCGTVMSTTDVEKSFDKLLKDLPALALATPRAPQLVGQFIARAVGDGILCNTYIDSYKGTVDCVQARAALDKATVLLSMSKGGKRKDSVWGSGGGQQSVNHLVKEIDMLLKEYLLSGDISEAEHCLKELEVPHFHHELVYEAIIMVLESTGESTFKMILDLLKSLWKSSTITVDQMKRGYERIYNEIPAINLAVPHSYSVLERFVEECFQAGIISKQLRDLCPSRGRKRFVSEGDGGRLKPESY
Put plainly: pull-down; data not shown: GST-Pdcd4-mut4 with cell extract, binding of eIF4G and eIF4E; only the target purified.

Amino acid sequences for entries named in this document (tags omitted).
UniProt P06730: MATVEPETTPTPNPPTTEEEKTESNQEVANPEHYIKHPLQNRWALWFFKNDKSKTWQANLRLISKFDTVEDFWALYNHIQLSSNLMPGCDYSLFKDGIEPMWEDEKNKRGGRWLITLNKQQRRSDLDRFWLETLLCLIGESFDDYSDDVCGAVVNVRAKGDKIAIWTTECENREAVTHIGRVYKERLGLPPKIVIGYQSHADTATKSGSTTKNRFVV
UniProt P11940: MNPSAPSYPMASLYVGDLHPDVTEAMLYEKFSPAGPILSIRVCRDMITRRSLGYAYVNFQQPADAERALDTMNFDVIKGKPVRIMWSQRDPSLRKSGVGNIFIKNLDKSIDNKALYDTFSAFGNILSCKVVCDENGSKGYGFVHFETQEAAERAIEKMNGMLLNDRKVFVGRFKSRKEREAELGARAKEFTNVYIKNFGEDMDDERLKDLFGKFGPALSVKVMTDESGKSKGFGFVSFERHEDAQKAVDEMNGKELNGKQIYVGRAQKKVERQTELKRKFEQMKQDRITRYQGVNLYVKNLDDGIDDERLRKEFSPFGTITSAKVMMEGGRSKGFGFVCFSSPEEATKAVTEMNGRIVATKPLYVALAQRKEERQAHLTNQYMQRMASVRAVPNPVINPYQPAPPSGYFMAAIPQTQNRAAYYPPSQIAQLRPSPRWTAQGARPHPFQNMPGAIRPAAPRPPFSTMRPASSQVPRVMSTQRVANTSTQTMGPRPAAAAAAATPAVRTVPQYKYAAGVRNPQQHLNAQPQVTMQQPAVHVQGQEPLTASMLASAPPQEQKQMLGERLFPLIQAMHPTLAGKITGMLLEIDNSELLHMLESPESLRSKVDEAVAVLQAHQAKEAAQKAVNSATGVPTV

Experiment [2] has as its target T2, Pdcd4 (endogenous, HEK293 cell extract) (human (endogenous in HEK293)) (UniProt Q53EL6).
T2 sequence: T1 sequence with A249E, A253D, A414D, A418D
The experiment in a line: co-IP; extract of untransfected HEK293 cells precipitated with rabbit antiserum against Pdcd4 or pre-immune serum; western blotting for PABP. Background: Immunoblotting shows a protein as a band on a membrane.

The target in experiment [3] is T3, GST-Pdcd4 (full-length human Pdcd4 fused to GST) (human) (UniProt Q53EL6).
T3 sequence: T1 sequence with A249E, A253D, A414D, A418D
The experiment in a line: pull-down; GST proteins immobilised on glutathione sepharose, incubated with HEK293 cell extract (endogenous proteins), 1 h at 4 °C, ELB buffer; western blotting; also done in the absence or presence of 0.5 μg/ml RNase A; only the target purified.

In experiment [4] the target is T1, GST-Pdcd4-mut4 (human). Described as above.
The target of experiment [5] is T3, GST-Pdcd4 (full-length human Pdcd4 fused to GST) (human). Put plainly: pull-down; GST fusion proteins on glutathione sepharose, incubated with extract of transfected cells (QT6 fibroblasts) in ELB buffer, 1 h at 4 °C; western blotting against the Myc or Flag tag; only the target purified.
Experiment [6] addresses T4, GST-Pdcd4 ΔRBD (human) (UniProt Q53EL6).
T4 sequence: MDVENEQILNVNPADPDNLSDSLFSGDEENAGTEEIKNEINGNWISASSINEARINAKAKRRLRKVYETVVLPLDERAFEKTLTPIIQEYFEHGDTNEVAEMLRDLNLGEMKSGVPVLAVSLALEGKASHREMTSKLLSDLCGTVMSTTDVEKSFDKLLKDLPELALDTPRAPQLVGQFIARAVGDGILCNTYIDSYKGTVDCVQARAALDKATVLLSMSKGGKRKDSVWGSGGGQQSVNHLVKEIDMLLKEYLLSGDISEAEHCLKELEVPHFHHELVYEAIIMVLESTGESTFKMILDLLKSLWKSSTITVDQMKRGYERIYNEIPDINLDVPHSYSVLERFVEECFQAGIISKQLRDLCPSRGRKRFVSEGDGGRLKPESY
Described as above.

Experiment [7] has as its target T5, GST-Pdcd4-K114A/K115A (human) (UniProt Q53EL6).
T5 sequence: T1 sequence with K114A, K115A, A249E, A253D, A414D, A418D
The experiment is described as above.

Experiment [8] deals with T6, GST-Pdcd4-RBDstop (only the N-terminal RNA-binding domain of human Pdcd4) (human) (UniProt Q53EL6).
T6 sequence: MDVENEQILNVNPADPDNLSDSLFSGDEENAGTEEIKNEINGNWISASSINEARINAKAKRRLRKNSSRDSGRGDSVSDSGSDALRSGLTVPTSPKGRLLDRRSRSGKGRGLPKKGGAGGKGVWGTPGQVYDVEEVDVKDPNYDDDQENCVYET
The description is as above.

The target in experiment [9] is T7, GST-Pdcd4-V123A/W124A (human) (UniProt Q53EL6).
T7 sequence: T1 sequence with V123A, W124A, A249E, A253D, A414D, A418D
The experiment is described as above.

Residue numbers refer to the chain shown, from its start. Results are given in words; binding and its absence hold for the method and conditions named. In cells and extracts the contact can be indirect. Some binding calls cover weakened binding; strength is not graded here. For part of these data: Tags and fused reporters may be left off the sequences shown.

Binding data for three substances are collected here from publication PMC4176178.

Consider “eIF4E (endogenous, HEK293 cell extract) (from UniProt P06730 1-217)”, for which the binding entry in [1] is given as “binds”.
On to “poly(A)-binding protein (PABP), endogenous, HEK293 cell extract (from UniProt P11940 1-636)”, for which the binding result in [2], in [3] and in [4] was “binds” in each case.
Turning to “Myc-tagged human PABP (from UniProt P11940 1-636)”, the binding result in experiment [5] was “binds”; in experiment [6] it was “no binding”; in experiment [7] it was “no binding”; in experiment [8], “binds”; in [9] it was “no binding”.
